The supplement of paper PMC12217912
This is one part of the list. The full chains were built here from the parent and the listed change. Inactive controls read about 0.05.

B1: TEV protease; numbered along this chain (parent)
chain: MGESLFKGPRDYNPISSSICHLTNESDGHTTSLYGIGFGPFIITNKHLFRRNNGTLVVQSLHGVFKVKDTTTLQQHLVDGRDMIIIRMPKDFPPFPQKLKFREPQREERICLVTTNFQTKSMSSMVSDTSCTFPSGDGIFWKHWIQTKDGQCGSPLVSTRDGFIVGIHSASNFTNTNNYFTSVPKNFMELLTNQEAQQWVSGWRLNADSVLWGGHKVFMVKPEEPFQPVKEATQL

Variants of: B1
Assay: raw area under fraction-flipped curve 0-4 h after induction (AUC4h, not background-subtracted), DNA-recorder readout of cleavage of the substrate (dimensionless); higher = more cleavage of the substrate by the protease variant
Settings: temperature: 34 °C; time window: 0-4 h after rhamnose induction
Procedure: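 In vivo DNA recorder in E. coli TOP10(DE3) ΔrhaA at 34 °C. Each TEVp single-site mutant (parent TEVp 0) is paired with a single-site variant of the 7-mer TEVs (canonical ENLYFQ|S). The substrate sits between flexible linkers in a Bxb1-sfGFP-TEVs-SsrA fusion, so cleavage stabilises Bxb1 and speeds flipping of a recombination array, read by NGS. The value is the raw area under the fraction-flipped curve over 0-4 h after rhamnose induction (AUC4h), with ≥20 reads per time point. It is not background-subtracted; inactive controls average about 0.047.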
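Further: Bxb1 expression induced with 0.2% (w/v) L-rhamnose at OD600 near 0.5, cultures sampled hourly, flipped fraction per protease–substrate barcode pair counted by paired-end Illumina sequencing.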

| Variant | area with substrate ENLAFQS | area with substrate ENLCFQS | area with substrate ENLDFQS | area with substrate ENLEFQS | area with substrate ENLFFQS | area with substrate ENLGFQS | area with substrate ENLHFQS | area with substrate ENLIFQS | area with substrate ENLKFQS | area with substrate ENLLFQS | area with substrate ENLMFQS | area with substrate ENLNFQS | area with substrate ENLPFQS | area with substrate ENLQFQS | area with substrate ENLRFQS | area with substrate ENLSFQS | area with substrate ENLWFQS | area with substrate ENLTFQS | area with substrate ENLVFQS |
| --- | --- | --- | --- | --- | --- | --- | --- | --- | --- | --- | --- | --- | --- | --- | --- | --- | --- | --- | --- |
| MGESLFKGPRDYNPISSSICHFTNESDGHTTSLYGIGFGPFIITNKHLFRRNNGTLVVQSLHGVFKVKDTTTLQQHLVDGRDMIIIRMPKDFPPFPQKLKFREPQREERICLVTTNFQTKSMSSMVSDTSCTFPSGDGIFWKHWIQTKDGQCGSPLVSTRDGFIVGIHSASNFTNTNNYFTSVPKNFMELLTNQEAQQWVSGWRLNADSVLWGGHKVFMVKPEEPFQPVKEATQL [L22F] | 0.0579 | 0.0632 | 0.0565 | 0.0606 | 0.0744 | 0.0454 | 0.0581 | 0.0621 | 0.0706 | 0.0581 | 0.0529 | 0.0584 | 0.0625 | 0.0569 | 0.0615 | 0.0625 | – | – | – |
| MGESLFKGPRDYNPISSSICHLTNESYGHTTSLYGIGFGPFIITNKHLFRRNNGTLVVQSLHGVFKVKDTTTLQQHLVDGRDMIIIRMPKDFPPFPQKLKFREPQREERICLVTTNFQTKSMSSMVSDTSCTFPSGDGIFWKHWIQTKDGQCGSPLVSTRDGFIVGIHSASNFTNTNNYFTSVPKNFMELLTNQEAQQWVSGWRLNADSVLWGGHKVFMVKPEEPFQPVKEATQL [D27Y] | 0.0612 | 0.074 | 0.0723 | 0.057 | 0.0776 | 0.0606 | 0.0747 | – | 0.0748 | – | – | 0.0647 | 0.0529 | 0.055 | – | 0.0676 | 0.0688 | – | – |
| MGESLFKGPRDYNPISSSICHLTNESDVHTTSLYGIGFGPFIITNKHLFRRNNGTLVVQSLHGVFKVKDTTTLQQHLVDGRDMIIIRMPKDFPPFPQKLKFREPQREERICLVTTNFQTKSMSSMVSDTSCTFPSGDGIFWKHWIQTKDGQCGSPLVSTRDGFIVGIHSASNFTNTNNYFTSVPKNFMELLTNQEAQQWVSGWRLNADSVLWGGHKVFMVKPEEPFQPVKEATQL [G28V] | 0.06 | 0.0696 | 0.0714 | 0.0591 | 0.0633 | – | 0.0611 | – | 0.051 | 0.0677 | – | 0.0543 | 0.0566 | 0.0629 | 0.0703 | 0.0572 | 0.0659 | – | – |
| MGESLFKGPRDYNPISSSICHLTNESDGHTLSLYGIGFGPFIITNKHLFRRNNGTLVVQSLHGVFKVKDTTTLQQHLVDGRDMIIIRMPKDFPPFPQKLKFREPQREERICLVTTNFQTKSMSSMVSDTSCTFPSGDGIFWKHWIQTKDGQCGSPLVSTRDGFIVGIHSASNFTNTNNYFTSVPKNFMELLTNQEAQQWVSGWRLNADSVLWGGHKVFMVKPEEPFQPVKEATQL [T31L] | 0.0514 | 0.0781 | 0.0473 | – | 0.0991 | – | 0.0748 | 0.107 | 0.0827 | 0.0452 | – | 0.0602 | 0.0517 | – | 0.104 | 0.0635 | 0.0686 | 0.0593 | – |
| MGESLFKGPRDYNPISSSICHLTNESDGHTTSLNGIGFGPFIITNKHLFRRNNGTLVVQSLHGVFKVKDTTTLQQHLVDGRDMIIIRMPKDFPPFPQKLKFREPQREERICLVTTNFQTKSMSSMVSDTSCTFPSGDGIFWKHWIQTKDGQCGSPLVSTRDGFIVGIHSASNFTNTNNYFTSVPKNFMELLTNQEAQQWVSGWRLNADSVLWGGHKVFMVKPEEPFQPVKEATQL [Y34N] | 0.0711 | – | 0.0647 | – | 0.0977 | – | – | – | 0.0572 | 0.0583 | – | 0.0643 | 0.0497 | – | 0.0836 | 0.0611 | – | – | – |
| MGESLFKGPRDYNPISSSICHLTNESDGHTTSLYQIGFGPFIITNKHLFRRNNGTLVVQSLHGVFKVKDTTTLQQHLVDGRDMIIIRMPKDFPPFPQKLKFREPQREERICLVTTNFQTKSMSSMVSDTSCTFPSGDGIFWKHWIQTKDGQCGSPLVSTRDGFIVGIHSASNFTNTNNYFTSVPKNFMELLTNQEAQQWVSGWRLNADSVLWGGHKVFMVKPEEPFQPVKEATQL [G35Q] | 0.033 | – | 0.0596 | – | 0.0034 | 0.0319 | 0.0497 | 0.0311 | – | – | – | 0.0461 | – | – | – | – | 0.0332 | – | – |
| MGESLFKGPRDYNPISSSICHLTNESDGHTTSLYGIGFPPFIITNKHLFRRNNGTLVVQSLHGVFKVKDTTTLQQHLVDGRDMIIIRMPKDFPPFPQKLKFREPQREERICLVTTNFQTKSMSSMVSDTSCTFPSGDGIFWKHWIQTKDGQCGSPLVSTRDGFIVGIHSASNFTNTNNYFTSVPKNFMELLTNQEAQQWVSGWRLNADSVLWGGHKVFMVKPEEPFQPVKEATQL [G39P] | 0.0491 | 0.0447 | 0.0403 | – | 0.0601 | – | 0.0388 | 0.0491 | 0.0456 | 0.0449 | – | 0.037 | 0.0544 | 0.0375 | 0.0355 | 0.0425 | – | 0.0431 | 0.0403 |
| MGESLFKGPRDYNPISSSICHLTNESDGHTTSLYGIGFGPCIITNKHLFRRNNGTLVVQSLHGVFKVKDTTTLQQHLVDGRDMIIIRMPKDFPPFPQKLKFREPQREERICLVTTNFQTKSMSSMVSDTSCTFPSGDGIFWKHWIQTKDGQCGSPLVSTRDGFIVGIHSASNFTNTNNYFTSVPKNFMELLTNQEAQQWVSGWRLNADSVLWGGHKVFMVKPEEPFQPVKEATQL [F41C] | 0.0646 | 0.0768 | – | 0.0711 | – | 0.0999 | 0.0786 | 0.0831 | 0.119 | – | 0.0598 | 0.0661 | 0.0317 | – | 0.0967 | 0.0691 | 0.0791 | – | – |
| MGESLFKGPRDYNPISSSICHLTNESDGHTTSLYGIGFGPRIITNKHLFRRNNGTLVVQSLHGVFKVKDTTTLQQHLVDGRDMIIIRMPKDFPPFPQKLKFREPQREERICLVTTNFQTKSMSSMVSDTSCTFPSGDGIFWKHWIQTKDGQCGSPLVSTRDGFIVGIHSASNFTNTNNYFTSVPKNFMELLTNQEAQQWVSGWRLNADSVLWGGHKVFMVKPEEPFQPVKEATQL [F41R] | 0.0536 | 0.06 | 0.0505 | 0.0539 | 0.0569 | – | 0.0476 | – | 0.0627 | – | 0.0342 | 0.0479 | 0.0514 | 0.0548 | – | 0.0679 | 0.0376 | 0.0615 | 0.0698 |
